According to article PMC9574860, “Chemical Toolkit for PARK7: Potent, Selective, and High-Throughput” (Journal of Medicinal Chemistry, 2022):
Hit rate of the full screen: of about 7,900 compounds, about 400 (5.1%) showed an effect of 50% or more. Some of the results follow.

Molecular target: Parkinson's disease protein 7 (PARK7/DJ1) (human, UniProt Q99497)
Assay: primary screen, percent inhibition; read as competition with a fluorescent probe by fluorescence polarization; higher = more effect of the substance
Conditions: 100 µM
Procedure, shortened: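 Covalent fragments at 100 μM final were incubated 2 h with 0.2 μM PARK7, then 20 nM probe JYQ-107 added for a further 2 h. Fluorescence polarization read at 480/520 nm; relative FP loss versus reference controls gave remaining enzyme activity.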

Parkinson's disease protein 7 (PARK7/DJ1), sequence (Q99497 whole entry, looked up): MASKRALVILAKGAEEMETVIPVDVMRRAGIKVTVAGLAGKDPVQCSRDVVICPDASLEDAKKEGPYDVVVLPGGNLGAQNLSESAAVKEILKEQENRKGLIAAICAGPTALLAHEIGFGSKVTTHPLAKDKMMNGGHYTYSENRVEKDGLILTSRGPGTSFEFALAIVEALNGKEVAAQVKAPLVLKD

SMILES | Inhibition % [%]
O=C(Oc1ccnc2cc(Cl)ccc12)N1CCOCC1 | 6.01
CC1NC(=O)N(CCCl)C1=O (stereo not shown) | 7.7
N#CCC1(O)CN(S(=O)(=O)C=Cc2ccc(Cl)cc2)C1 | 0.0636
CCN(Cc1cccc(F)c1)C(=O)CCl | 6.87
COc1cc(S(=O)(=O)n2ccnc2)ccc1Cl | 10
Cl.ClCC12CCN(CC1)CC2 | 9.63
CC1(C)OB(c2ccc(F)c(OC(F)(F)F)c2)OC1(C)C | 6.24
CC1(C(=O)O)CCN(C(=O)C=Cc2ccccn2)C1 (stereo not shown) | 5.25
O=C(CCl)Nc1ncc([N+](=O)[O-])s1 | 96.3
N#Cc1cc(Oc2ccc(N)cc2)ccn1 | 13.6
Cc1cc(CN(C)S(=O)(=O)C=Cc2ccccc2)no1 | -3.7
C=C(C)CN1CCN(c2oc(C3CC3)nc2C#N)CC1 | 3.31
CSC1CCCC(Nc2ccc(C#N)nc2)C1 (stereo not shown) | 8.87
N#Cc1cc(C(=O)Nc2cc[nH]n2)c[nH]1 | 19.5
Cc1ccc(NC(=O)CCl)cc1S(N)(=O)=O | 17.6
C=CC(=O)NC1CCCC2CCCCC21 (stereo not shown) | 1.96
Cc1ccccc1-c1noc(=O)n1CC(N)=O | 4.11
O=C(CCl)NNC(=O)c1cc2c(s1)CCCC2 | 4.38
C=CC(=O)N1CCN(C2CC2)c2cc(F)ccc21 | 18.7
Cc1cc(C)c(NC(=O)Cn2cnc(C#N)n2)c(C)c1 | 3.59
OB(O)C1CCN(Cc2cc3n(n2)CCCC3)C1 (stereo not shown) | 5.29
N#CN(CC1CCOC1)c1ccc(F)cc1 (stereo not shown) | 6.47
O=C(CCl)NCC1CCCc2ccccc21 (stereo not shown) | 0.905
Cc1nc(S)c(C#N)c(C)c1C | 3.15
C=CC(=O)NC1CC(OCC)C12CCCC2 (stereo not shown) | 8.99
O=C1CN=C(S)N1c1ccccc1Cl | 5.52

SMILES | Inhibition % [%]
C=CC(=O)N1CCNC(=O)C1Cc1nc2ccccc2o1 (stereo not shown) | 7.43
COc1ccc(-c2csc(NC(=O)CCl)n2)cc1 | 14
CC(NC(=O)CCl)c1cccs1 (stereo not shown) | 9.37
N#Cc1ncccc1O | 23.2
Cc1c(-c2ccccc2)[nH]c(=S)[nH]c1=O | 9.98
CS(=O)(=O)c1ccc(F)c(NC(=O)CCl)c1 | 3.84
N#Cc1ccc(N2CC(O)CC2c2ccc(F)cc2)cn1 (stereo not shown) | 5.17
C#Cc1cccc(NS(=O)(=O)C=Cc2ccccc2)c1 | -2.07
CC(NC(=O)CCl)c1ccco1 (stereo not shown) | 12.3
N#Cc1ccc(OCC2CO2)cc1 (stereo not shown) | 1.24
C=CC(=O)N1Cc2cnn(C)c2C1 | 14.1
CC(C)n1ccc(=O)nc1S | 1.42
C=CC(=O)NC1CCCN(C(=O)OC)C1 (stereo not shown) | 4.18
NC(=O)CCN(C(=O)CCl)c1ccc(F)cc1 | 37.5
CCOC(=O)c1c(NC(=O)CCl)sc2c1CCCC2 | 2.08
N#Cc1[nH]ncc1NS(=O)(=O)c1ccc2c(c1)CCCC2 | 5.98
C=CC(=O)N1CC(C)OC(C(F)(F)F)C1 (stereo not shown) | 14.7
CS(=O)(=O)c1cccnc1C#N | 5.26
CC1CCC(N(C)C(=O)CCl)CC1 (stereo not shown) | 101
O=C(CCl)NCC(=O)Nc1ccc(F)c(F)c1F | 4.68
Cc1cccc(Oc2nccnc2C#N)c1 | 1.62
C=CC(=O)Nc1c(C)ccn2ncnc12 | 6.69
CCC1(NC(=O)c2ccc(C#N)[nH]2)CCC1 | 7.61
O=C(CCl)NCc1ccc(-c2ccc(Cl)cc2)o1 | 18.1
CN(C)C(=O)c1csc(C(=O)CCl)c1 | 67.8
O=C(CCl)NCc1ccc(N2CCCC2)cc1 | 0.611

SMILES | Inhibition % [%]
Cc1cc(C=C(C#N)C(=O)NC(C)C)cc(C)c1O | 4.49
O=C(O)CC1SC(=O)N(c2ccccc2)C1=O (stereo not shown) | 12.3
C=CC(=O)N1CCCCC1c1noc(C)n1 (stereo not shown) | 3.88
O=C(CCl)NC(=O)NC1CCS(=O)(=O)C1 (stereo not shown) | 11.9
N#Cc1ccc(Cl)c(Cl)n1 | 5.12
O=C(CCl)NCc1ccccc1CN1CCCC1=O | 1.17
C=CCNC(=O)C(C#N)=Cc1cccc(Cl)c1 | 29.5
Cc1cc(S(=O)(=O)n2cccn2)ccc1Cl | 0.878
Cc1ccc(B2OC(C)(C)C(C)(C)O2)s1 | 2.39
COc1ccc(C2CCCN2C(=O)C2CCC(=O)O2)cc1 (stereo not shown) | 4.79
COc1ccc(C(NC(=O)CCl)C2CC2)cc1 (stereo not shown) | 2.94
CC(C)N(C)C(=O)C1CCN(C(=O)CCl)CC1 | 20.4
COc1ccc(C=C(C#N)C(=O)O)cc1 | 15.2
O=C(CCCl)Nc1ccc(F)c(F)c1 | 2.02
CCCn1ccc(B2OC(C)(C)C(C)(C)O2)n1 | 3.4
O=C(CCl)N1CCc2sccc2C1c1ccccc1 (stereo not shown) | 1.12
C=CC(=O)NCc1cc(C2CC2)ccc1F | 7.51
C=CC(=O)N1CC(c2ccccc2)C1 | 12.4
C=CC(=O)N1CCN(Cc2cn(C)nc2C)CC1 | 14
CCc1cccc(N2C(=O)CN=C2S)c1 | 0.493
O=C(CCl)Nc1nc2ccc(Br)cc2s1 | 3.52
c1cc(C2CC2)cc(C2CO2)c1 (stereo not shown) | 10.8
Cl.O=C(CCl)NCCc1cccc2cccnc12 | 30.3
CC1CC(N2CCCC2c2ccsc2)C(=O)O1 (stereo not shown) | 1.18
N#Cc1nccnc1Sc1cccc(F)c1 | 3.31
O=C(Nc1cccnc1)Oc1ccccc1 | 15.8

SMILES | Inhibition % [%]
CC1CC(N2CCCC(NS(C)(=O)=O)C2)C(=O)O1 (stereo not shown) | 7.71
O=C1CN=C(S)N1c1cccc(Cl)c1 | 2.22
CCOc1cc(C)c(C)cc1S(=O)(=O)n1cnc(C)c1 | 9.34
O=C(O)[C@H]1[C@H]2C(=O)OC[C@]23CC[C@H]1O3 (racemic) | 7.05
C=CC(=O)NC1CCCN(c2cccnc2)C1=O (stereo not shown) | 15.4
CC1(C)OB(c2ccc(CC(F)(F)F)cc2)OC1(C)C | 2.89
Cc1ccc(C)c(OCC2CO2)c1 (stereo not shown) | 8.85
N#Cc1coc(C2CCC2)n1 | 7.28
O=C(NCCN1C(=O)CCC1=O)c1ccc2[nH]ccc2c1 | 4.5
Cc1cc(C)c(NC(=O)CCl)c(C)c1 | 6.49
N#Cc1ccc(OCC(F)F)cn1 | 6.74
O=C(O)C=CC(=O)Nc1ccccc1O | 20.6
C=CC(=O)NC1(c2ccc(F)cc2F)CCOCC1 | 6.35
Cc1ccc(C=CS(=O)(=O)NC2CC(=O)N(C)C2)cc1 (stereo not shown) | 12.5
CS(=O)(=O)C(C#N)=Cc1ccc(O)cc1 | 15.2
C=CC(=O)N1CCNC(=O)CC1C (stereo not shown) | 29.8
Cc1cc(C(=O)CCl)c(C)n1CC(F)(F)F | 1.46
Cc1nn(CCCl)c(C)c1C(=O)O | 7.84
C=CC(=O)N1CCN(C(=O)c2ccco2)CC1 | 4.28
C=CC(=O)NC1(C)CCOCC1 | 1.41
N#Cc1nc(-c2ccco2)oc1N1CCNCC1 | 9.97
COC(=O)c1cc(F)cc(B2OC(C)(C)C(C)(C)O2)c1 | 2.89
Clc1ccc(COCC2CO2)cc1 (stereo not shown) | 12.4
C=CC(=O)N[C@@H]1COCC[C@H]1OC (racemic) | 6.51
C=CC(=O)N1CCCC2(CCCOC2)C1 (stereo not shown) | 11.3
Cn1c(=O)oc2ccc(NC(=O)C(C#N)=CC3CC3)cc21 | 9.41

SMILES | Inhibition % [%]
CS(=O)(=O)NCCc1ccc(C(=O)CCl)s1 | 97.6
C=CC(=O)N1CC(C)(C#N)C1 | 2.37
C=CC(=O)N1CCC(c2ncc(C(=O)O)o2)CC1 | 14.8
CCC(CNC(=O)CCl)c1ccccc1 (stereo not shown) | 16.6
Cc1cc(OC2CCOC2=O)ccc1N (stereo not shown) | 7.05
C=CC(=O)N1CCCC(n2ccnn2)CC1 (stereo not shown) | 11.9
Cc1ccccc1C(=O)NC1CCN(C(=O)CCl)CC1 | 25.2
Cl.NCCN1C(=O)CSC1=O | 75.6
Cn1ccnc1CN(C#N)c1ccc(F)cc1 | -1.51
C=CC(=O)N1Cc2ccccc2C(C(=O)OC(C)(C)C)C1 (stereo not shown) | 11.5
C=CC(=O)N(Cc1cncs1)C1CCN(C(C)=O)CC1 | 5.13
C=CC(=O)N1CCN(C2CCOC2)CC1 (stereo not shown) | 5.2
C=CC(=O)NCCS(=O)(=O)c1cccs1 | 4.36
C#CCN1CCN(C(=O)CCl)CC1.Cl | 18.8
O=C1NC2C3CCC(C3)C12 (stereo not shown) | 0.71
CC1(C)OB(c2ccnnc2)OC1(C)C | 1.99
Nc1ccc(S(=O)(=O)F)c(F)c1 | 12.3
C=CC(=O)N1CCC(n2cc(C(=O)O)nn2)C1 (stereo not shown) | 10.7
O=C1C[C@H](NS(=O)(=O)c2csc3ccccc23)CO1 | 0.617
N#Cc1nc(OCC2CC2)ccc1Cl | 1.17
COc1ccc(CS)c(OC)c1 | 5.78
C=CC(=O)N1CCOC(c2ccccc2Cl)C1 (stereo not shown) | 5.95
CC1CN(C(=CC#N)c2ccc(F)cc2)CC(C)O1 (stereo not shown) | 11
